PubChem BioAssay AID588591 (National Center for Advancing Translational Sciences (NCATS), 2011)
The whole screen tested about 390,000 compounds, of which about 4,700 (1.2%) were called active. Inconclusive results, whose numbers are uncertain, are shown with a selection of clear calls. Calls come from the whole dose curve; as a rule, active = well fitted inhibition curve with a large enough effect; inconclusive = small, poorly fitted or top-dose-only effect, or another doubt; inactive = no such curve, though single readings can be large or run the other way. Where the call is inconclusive, the potency comes from a doubtful curve fit.

Molecular target: DNA polymerase eta (Homo sapiens) (UniProt Q9Y253)
Chain of UniProt Q9Y253 (Q9Y253 whole entry, looked up): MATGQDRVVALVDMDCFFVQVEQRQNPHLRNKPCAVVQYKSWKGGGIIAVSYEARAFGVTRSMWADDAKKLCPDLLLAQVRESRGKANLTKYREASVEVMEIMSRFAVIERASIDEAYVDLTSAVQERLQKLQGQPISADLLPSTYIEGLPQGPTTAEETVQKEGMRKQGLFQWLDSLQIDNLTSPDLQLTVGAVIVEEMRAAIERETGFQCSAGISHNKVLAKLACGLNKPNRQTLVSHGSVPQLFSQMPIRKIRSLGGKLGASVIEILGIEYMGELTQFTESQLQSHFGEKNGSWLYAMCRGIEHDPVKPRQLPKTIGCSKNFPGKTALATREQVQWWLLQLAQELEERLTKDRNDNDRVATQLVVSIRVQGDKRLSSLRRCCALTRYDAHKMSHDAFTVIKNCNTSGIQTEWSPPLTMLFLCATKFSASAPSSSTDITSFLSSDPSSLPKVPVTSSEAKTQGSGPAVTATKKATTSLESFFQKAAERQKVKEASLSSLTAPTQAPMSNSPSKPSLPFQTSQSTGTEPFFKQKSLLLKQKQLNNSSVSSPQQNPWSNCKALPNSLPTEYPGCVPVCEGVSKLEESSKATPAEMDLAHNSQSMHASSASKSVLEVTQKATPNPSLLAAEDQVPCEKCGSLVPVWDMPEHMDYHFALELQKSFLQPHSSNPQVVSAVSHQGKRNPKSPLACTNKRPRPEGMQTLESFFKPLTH
Test: qHTS for Inhibitors of Polymerase Eta
Settings: recombinant Pol eta, fluorescent DNA replication assay; series mostly up to 114 µM; activity change, negative = inhibition: at the top concentration
Procedure, shortened: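 Pol eta (10 nM) was preincubated with compounds for 15 min at room temperature, after which fluorescent replication substrate (50 nM final) was added to start the reaction. Fluorescence was read kinetically at 0 and 10 min.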
% is set by controls: 0 for no effect and ±100 for the full control effect; potency is the fitted concentration of half-maximal effect; tags give direction and shape of the fitted curve.

SMILES	activity change, negative = inhibition	Potency
Clc1ccc2nc(CSc3nc4ccccc4o3)cn2c1	inactive: 3.61%	–
O=S(=O)(O)c1cc(O)c2c(O)c(N=Nc3cc(Cl)ccc3O)c(S(=O)(=O)O)cc2c1	–	active: 35.5 µM
CC(C)(C)c1ccc(C(=O)CCC(=O)NCc2ccccc2)cc1	–	inconclusive: 79.4 µM [inhibitor, partial curve, poor fit]
c1ccc(-c2nc(-n3ccnc3)nc(-n3ccnc3)n2)cc1	–	inconclusive: 31.6 µM [inhibitor, partial curve, poor fit]
COc1cc(/C=C/C(=O)O)cc(S(=O)(=O)NNC(=O)c2ccc3c(c2)OCO3)c1OC	inactive: -8.93%	–
COc1ccccc1NC(=S)NCCSc1ccc(C)cc1	inactive: -4.87%	–
O=C(O)c1ccc2c(=O)n3c(nc2c1)/C(=C/c1ccc(Cl)c([N+](=O)[O-])c1)CC3	–	inconclusive: 22.4 µM [inhibitor, full curve]
O=C(CSc1nc(-c2ccc(F)cc2)cs1)NCC1CCCO1 (stereo not drawn)	–	inconclusive: 89.1 µM [inhibitor, partial curve, poor fit]
COC(=O)c1cc2oc(C)cc2n1Cc1cccc(Cl)c1	inactive: -19.6%	–
O=C(CCC1N=C2c3ccccc3N=C(SCc3ccccc3Cl)N2C1=O)NCc1cccs1 (stereo not drawn)	inactive: -19.4%	–
CS(=O)(=O)c1ccc(C(=O)OCC(=O)NC(=O)C2COc3ccccc3O2)cc1[N+](=O)[O-] (stereo not drawn)	–	inconclusive: 22.4 µM [inhibitor, full curve]
C/C(=N\NC(=O)c1ccc(NS(=O)(=O)c2cccs2)cc1)c1ccccc1	inactive: -11%	–
C=CCn1c(NC(=O)c2ccccc2Cl)c(C#N)c2nc3ccccc3nc21	–	active: 31.6 µM
O=C1CCC(C(=O)N2CCN(c3ccccc3)CC2)CN1Cc1ccc(Cl)cc1 (stereo not drawn)	inactive: -19.7%	–
COC(=O)c1ccc(CN2C(=O)NC(c3ccccc3)(c3ccccc3)C2=O)o1	–	inconclusive: 89.1 µM [inhibitor, partial curve, poor fit]
O=C(CSc1nnc(SCc2cccc3ccccc23)s1)c1ccc2c(c1)OCO2	inactive: 1.43%	–
CC(=O)c1cc(OC(=O)c2ccncc2)ccc1OC(=O)c1ccncc1	–	inconclusive: 28.2 µM [inhibitor, partial curve, poor fit]
N=c1c(C(=O)NCC2CCCO2)cc2c(=O)n3ccccc3nc2n1C1CCCC1 (stereo not drawn)	–	inconclusive: 89.1 µM [inhibitor, partial curve, poor fit]
Nc1c(Cl)c(Cl)nc(C(=O)OCC(=O)N2CCCC2=O)c1Cl	–	inconclusive: 17.8 µM [inhibitor, full curve, poor fit]
O=C(CSc1oc(-c2ccco2)nc1S(=O)(=O)c1ccc(Cl)cc1)NCC1CCCO1 (stereo not drawn)	–	active: 79.4 µM
O=[n+]1c2c(n([O-])c3cc(F)c(N4CCCC4)cc31)CCC2	–	inconclusive: 11.2 µM [inhibitor, full curve, poor fit]
CC(=O)Nc1ccc(S(=O)(=O)N2CCN(c3cc4c(cc3[N+](=O)[O-])n(C)c(=O)n4C)CC2)cc1	inactive: -17.6%	–
Cc1[nH]c2ccccc2c1C(=O)CSc1ccc(Cl)cc1	inactive: -18%	–

SMILES	activity change, negative = inhibition	Potency
COc1ccc([C@H]2C[C@H](O)[C@@H](n3cc(COC(=O)c4ccccc4)nn3)CN2CC2CCCCC2)cc1	–	inconclusive: 70.8 µM [inhibitor, partial curve, poor fit]
O=C(CS(=O)(=O)c1ccc(F)cc1)Nc1nnc(-c2ccccc2Cl)o1	–	inconclusive: 20 µM [inhibitor, partial curve, poor fit]
Cn1cncc1C#Cc1c(-c2ccsc2)sc2ccccc12	–	inconclusive: 79.4 µM [inhibitor, partial curve, poor fit]
O=[N+]([O-])c1ccc(Cl)c(S(=O)(=O)Nc2cccc(-c3ccc(N4CCOCC4)nn3)c2)c1	–	inconclusive: 35.5 µM [inhibitor, partial curve, poor fit]
O=C(Cc1cccs1)Nc1nnc(SCc2cccc3ccccc23)s1	–	inconclusive: 8.91 µM [inhibitor, full curve]
CCOc1ccccc1-c1nc(-c2cc3ccccc3nc2OC)no1	–	inconclusive: 0.282 µM [inhibitor, full curve, poor fit]
COC(=O)C(Cc1ccccc1)NC(=O)C12CC3CC(CC(C3)C1)C2 (stereo not drawn)	–	inconclusive: 89.1 µM [inhibitor, single point]
CCOc1ccccc1NC(=O)c1c(NCc2ccc(C)o2)sc2c1CCCCC2	inactive: -8.12%	–
CC1=C(C(=O)OCc2ccccc2)C(c2ccc3ccccc3c2)NC(=O)N1CCCC(=O)O (stereo not drawn)	inactive: 4.21%	–
Cc1ccc(Cc2nc3ccccc3nc2SCC(=O)N2CCCCC2)cc1	inactive: -19.7%	–
Cc1nn(-c2cccc(Cl)c2)c2nc(-c3ccco3)cc(C(=O)O)c12	–	active: 17.8 µM
CCS(=O)(=O)N1Cc2ccccc2CC1C(=O)Nc1ccc(NC(C)=O)cc1 (stereo not drawn)	–	inconclusive: 31.6 µM [inhibitor, single point]
Cc1cccc2c(N=O)c(O)[nH]c12	–	active: 35.5 µM
CC1Cc2ccccc2N1C(=O)COC(=O)c1ccco1 (stereo not drawn)	inactive: -2.24%	–
CCCCCCCCCCCCCCCCCCNc1ccn(C2OC(COP(=O)(O)OCC3OC(n4cc(F)c(=O)[nH]c4=O)CC3O)C(O)C2O)c(=O)n1 (stereo not drawn)	–	active: 14.1 µM
CC(C)CN(C(=O)COC(=O)c1cc2c(s1)CCC2)C1CCS(=O)(=O)C1 (stereo not drawn)	–	active: 3.55 µM
O=C(CSc1nc2ccccc2c(=O)n1Cc1ccco1)NCc1ccco1	–	active: 79.4 µM
CC(C)c1ccc(N2C(=O)/C(=C/N(C)C)SC2=S)cc1	–	inconclusive: 10 µM [inhibitor, full curve, poor fit]
O=C(Nc1ccc(S(=O)(=O)NCc2ccco2)cc1)c1ccc2ccccc2n1	–	inconclusive: 17.8 µM [inhibitor, full curve, poor fit]
COc1cc(/C=C2/C(=O)N(c3ccc(C(=O)O)cc3)N=C2C)cc(OC)c1O	–	inconclusive: 79.4 µM [inhibitor, partial curve]
COc1cc(/C=C2\SC(=S)N(Nc3ncc(C(F)(F)F)cc3Cl)C2=O)ccc1O	–	inconclusive: 50.1 µM [inhibitor, partial curve, poor fit]
COc1ccc2ccccc2c1C(=O)/C=C\c1ccoc1	–	inconclusive: 28.2 µM [inhibitor, partial curve]
COc1cccc(NC(=O)C(=O)c2cn(CC(=O)N3CCCC3)c3ccccc23)c1	–	inconclusive: 89.1 µM [inhibitor, single point]

SMILES	activity change, negative = inhibition	Potency
Cc1ccc(C(=O)Nc2ccc3c(c2)N(C)C(=O)c2ccccc2S3)cc1F	inactive: -6.21%	–
Cn1c(NC(=O)c2ccc(Br)o2)cc(=O)n(C)c1=O	–	inconclusive: 14.1 µM [inhibitor, partial curve, poor fit]
CCN(Cc1ccccc1)C(=O)Nc1ccc2c(c1)N(C)C(=O)c1ccccc1S2	inactive: -3.58%	–
O=C(N/N=C/c1ccc2c(c1)OCO2)c1sc2cc(Cl)ccc2c1Cl	–	inconclusive: 10 µM [inhibitor, partial curve, poor fit]
O=C(CCS(=O)(=O)c1ccc(Br)cc1)NCc1ccc(F)cc1	–	active: 39.8 µM
Cc1ccc(O)c(Sc2cc(C)ccc2O)c1	–	inconclusive: 44.7 µM [inhibitor, partial curve, poor fit]
O=C(CCCCn1cnc2c(=S)nc[nH]c21)Nc1ccc(C(=O)O)c(O)c1	–	inconclusive: 17.8 µM [inhibitor, full curve]
NS(=O)(=O)c1ccc(N=Nc2ccc(O)c3ncccc23)cc1	–	inconclusive: 12.6 µM [inhibitor, partial curve, poor fit]
Cc1ccc2nc(SCC(=O)Nc3cccc4ccccc34)nc(=O)n2c1	inactive: -0.878%	–
Cn1ccsc1=NC(=O)c1ccc(Cl)c([N+](=O)[O-])c1	–	inconclusive: 39.8 µM [inhibitor, single point]
CN(Cc1ccccc1)C(=O)CCNS(=O)(=O)c1ccc2c(c1)oc(=O)n2C	–	inconclusive: 89.1 µM [inhibitor, single point]
O=C(Cn1nnc(-c2ccccc2NC(=O)c2ccco2)n1)Nc1ccccc1	–	inconclusive: 14.1 µM [inhibitor, partial curve, poor fit]
COc1ccc(-c2c(C)c3ccc(O)c(CN4CCN(C)CC4)c3oc2=O)cc1OC	inactive: -6.8%	–
CCc1ccc2[nH]c(=O)c(C3C(C#N)=C(N)Oc4c3ccc3cccnc43)cc2c1 (stereo not drawn)	–	inconclusive: 14.1 µM [inhibitor, full curve, poor fit]
O=[N+]([O-])c1ccc(/C=N/N2CCN(c3ccncc3S(=O)(=O)N3CCCCC3)CC2)cc1	–	inconclusive: 35.5 µM [inhibitor, single point]
CC1CCN(S(=O)(=O)c2ccc(S(=O)(=O)NCc3ccco3)cc2)CC1	inactive: 10.3%	–
COc1ccc(CNC(=O)COC(=O)c2ccc(S(=O)(=O)NCc3ccco3)cc2)cc1	–	active: 31.6 µM
COC(=O)c1ccccc1NC(=O)CN1CCC(n2nnc3cc(C(F)(F)F)ccc32)CC1	inactive: -15.8%	–
CCN(CC)S(=O)(=O)c1ccc(NC(=O)Cc2cccs2)cc1	–	active: 56.2 µM
O=[N+]([O-])c1cc(S(=O)(=O)Nc2cccc(Cl)c2)ccc1N=Nc1c(O)[nH]c2ccccc12	–	inconclusive: 89.1 µM [inhibitor, single point]
O=C1CS/C(=N\N=C\c2ccco2)N1c1ccccc1	–	inconclusive: 56.2 µM [inhibitor, partial curve, poor fit]
CC1Cc2ccccc2N1C(=O)COC(=O)c1ccc([N+](=O)[O-])o1 (stereo not drawn)	–	inconclusive: 56.2 µM [inhibitor, partial curve, poor fit]
